# ± gives the standard deviation of the averaged measurements. Some of the results follow.
# Test system: PfAP2-LT AP2 domain (GST-tagged)
# Experiment: gcPBM binding intensity (ln(normalized median fluorescence intensity)); higher = stronger DNA binding
# How it was run: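 Using an Agilent 4 × 180k array, primer-extended double-stranded 36-bp intergenic genomic probes and negative controls were exposed for 1 h to GST-fused P. falciparum DNA-binding domains expressed in E. coli. Binding was carried out in 1× PBS with 1% milk, 0.2 mg/ml BSA, 0.5% salmon testes DNA and 0.03% Triton X-100, and protein was detected with Alexa488 anti-GST antibody and a 488 nm scan. Binding intensity is the highest Masliner-normalised natural-log median intensity across replicate spots of either probe orientation.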
row,Sequence,gcPBM binding intensity (ln)
1,CGTTTATATAGTGATGCATGCATTGTTAACATGGTT [TGCATGCA_site418],9.12 ± 0.39
2,TTTATACACAAAAAATGTACATATATATAATGAATT [XGTACX_site1195],8.72 ± 0.46
3,TGTATGTCTTTATTTTGTACACAATATAAAAAATTA [XGTACX_site5441],8.51 ± 0.38
4,CGCACAAAAATATACACACACACATATATATTTATT [CACACA_site3645],9.74 ± 0.28
5,ATTTATTGACTATTTACACACATATTTATTATAATA [CACACA_site1624],9.12 ± 0.36
6,TTTTTTTTTTTTTTTATAGTACATTACCAAAAAAAA [CACACA_negctrl_site1197],8.06 ± 0.24
7,TTAAAATAAAGAAAATGTACATAAATTAAAATAAAG [XGTACX_site2281],8.75 ± 0.59
8,ACACATAATATGTGTAGTACTTTTTCTTTAACATTA [XGTACX_site1436],9.17 ± 0.31
9,TATAAATATAAATATACACACATATATTTATTTATA [CACACA_site6890],8.7 ± 0.35
10,AACAGTAACATTGAATGTACTTAATTTTAAGAAAAT [XGTACX_site2971],8.71 ± 0.49
11,TATTTTGTTCTTTCCACACACAAATACAGATATTGT [CACACA_site6097],9.35 ± 0.35
12,ATTTGTATATATTAATGTACACACATGCGTATGTTC [XGTACX_site7579],9.46 ± 0.38
13,TCTTATCCATATATTACACACTATAAATAGAAATTA [CACACA_site6274],8.43 ± 0.35
14,TGGGTAAACAGACACACACACATATAGATTTATATA [CACACA_site7026],9.59 ± 0.53
15,ACACACATATATACATGTACATATATATATATATAT [XGTACX_site451],9.8 ± 0.38
16,CTTCCAATAAAAAATGCACACATTGAAAATATTGAA [CACACA_site2688],8.84 ± 0.42
17,AAATTATATGAACATTGTACTTTATATATGTAAGAA [XGTACX_site1611],8.6 ± 0.45
18,ATTTTCCAAAATAATTGTACAGGAAAGAAATAATTA [XGTACX_site7424],8.45 ± 0.4
19,TGTAGTCTGGAGAAAAGTACATAGTATCTGGTAACC [XGTACX_site2025],8.73 ± 0.42

row,Sequence,gcPBM binding intensity (ln)
1,TAATAAAATATGTACACACATACACCCATATATATA [CACACA_site1220],9.21 ± 0.35
2,AGGAACAAAATATACTGTACTTTATTATTTTCAAAA [XGTACX_site4421],8.47 ± 0.51
3,ATACATATTTTACATTCACACAACAAATTTATATTT [CACACA_site4700],8.8 ± 0.52
4,ATATATTTTAATTGATGTACTTTTTTATGTTAATGA [XGTACX_site4316],8.62 ± 0.43
5,TATACATATGAAAATACACACATACATACATATATA [CACACA_site8484],9.32 ± 0.33
6,ATTATACATATATAAGTGCAATAATGTTTTTTCCTT,8.7 ± 0.45
7,AAGGTATATATAACTACACACTTATATATAATCTAA [CACACA_site92],8.84 ± 0.45
8,ATTTATTTATTTATATGTACATATTTAAAGAGTTCA [XGTACX_site7631],8.58 ± 0.44
9,ATATATATATATATATGTACTAAGAATTCTTTAAAA [XGTACX_site8476],8.99 ± 0.27
10,TTACTTTTAACAAATGTGCGCAGTTATCACACAGAC,8.98 ± 0.21
11,TATATTTTGTTCTGTTGTACTAAAAAAATCTTTATA [XGTACX_site8372],8.39 ± 0.35
12,ACAAAACAAAAAAACTCACACATATACGGCATGTCA [CACACA_site5608],8.97 ± 0.4
13,ATTATAACTAAATAAATGATATATAATATTTTATTT [XGTACX_negctrl_site234],8.3 ± 0.54
14,TATATATAGAAACACACACACACACCCAAGCGTAGC [CACACA_site63],10.1 ± 0.13
15,AATTATAAAAAAAAAAAAAAAAAAAAAAACTAAATG [CACACA_negctrl_site1379],8.41 ± 0.54
16,ATAATGTATTTATATATATATATATATTTTAATAAA [CACACA_negctrl_site460],8.64 ± 0.26
17,TAATAAATCAATAAATGTACATATATGTATAATTTC [XGTACX_site980],8.91 ± 0.41
18,TTTAAAAATATATTCACACAGAAATAGTAAAAGTTA [CACACA_site4587],8.61 ± 0.42
19,TAAATATATTTATAAGCACACACTAATAAACCAACA [CACACA_site8022],9.11 ± 0.32

row,Sequence,gcPBM binding intensity (ln)
1,TTATGCAATTTGTATTGTACATTCATGATATTAATA [XGTACX_site5070],8.67 ± 0.4
2,ATCTATATCTATAATACACACATAAATGGATATATA [CACACA_site6284],8.87 ± 0.33
3,AATGTGTACGCACGCACACACAAAAAAATATATATA [CACACA_site2913],9.59 ± 0.54
4,CAAGCCCTTCTGCTTACACACAGTAATTATTGTGCA [CACACA_site7399],9.12 ± 0.36
5,AATACCCATATCTTCACACATACATAATAAATTATA [CACACA_site5367],8.81 ± 0.36
6,TTTGAATATTCATATGCACACAAATTAATATACATA [CACACA_site8040],8.84 ± 0.33
7,TTTATTTATGTGTGGGTGCATATACGTATGATGTAT,9.15 ± 0.32
8,TTTATTTTATTTTCATGTACAAAAGGGGAATAATAA [XGTACX_site2704],8.26 ± 0.34
9,GATTTATACAAATATGTACACACTAAATATATATTA [CACACA_site455],8.83 ± 0.4
10,TATTTATCTTTACGCACACACTTGCATGTACAAAAG [CACACA_site4753],9.32 ± 0.44
11,ATATGTATGTATTTATTATTGTGCATTGTATTTATA [CACACA_negctrl_site664],9.12 ± 0.43
12,ATATATTTATATATTTGTACATATAATATCTTCTTT [XGTACX_site8504],8.78 ± 0.45
13,GTCGTATAATTTTCAGTGCAATATTTGAATAAATGG [GTGCAC_site9404],8.71 ± 0.43
14,ATTTATTAATTACCATGTATAAAAAATTATATAATA [CACACA_negctrl_site581],8.25 ± 0.4
15,ATACAATACAAAAACACACACAAAAAAAGAAAAGGA [CACACA_site2156],9.63 ± 0.43
16,AGCAACTCAATATATATAAGAATTGTAATATAATAT [GTGCAC_negctrl_site429],8.7 ± 0.54
17,AAAAAAAAAAAATACACACACATATTTATTTATATA [CACACA_site7114],9.22 ± 0.33
18,AAAAAAGGTAAAAAAAGTACAAAAAAAAAATTAAAA [XGTACX_site6993],8.65 ± 0.61
19,AGTAGTCTGGAGAAAAGTACATAGTATCTGATAACC [XGTACX_site2028],8.86 ± 0.5
